Data taken from PubChem BioAssay AID488969 (Vanderbilt High Throughput Screening Facility, 2010).
In all, about 110,000 compounds were measured (“z-score”: median about -0.1, highest 2% from about 2 on). The list shows a part of the results.

The compounds below were run against Metabotropic glutamate receptor 8 (Rattus norvegicus) (UniProt P70579) (assay: mGluR8 Gi/Go-coupled signaling modulation – cell-based, rat, thallium flux, HTS, primary screen (AID 488969)). Conditions: HEK293 rat mGluR8, GIRK (G protein-gated inwardly rectifying potassium channel) thallium flux, FluoZin2; at 10 µM; stronger effect = higher value; submaximal glutamate (EC20) added with thallium.
Chain of UniProt P70579 (P70579 whole entry, looked up): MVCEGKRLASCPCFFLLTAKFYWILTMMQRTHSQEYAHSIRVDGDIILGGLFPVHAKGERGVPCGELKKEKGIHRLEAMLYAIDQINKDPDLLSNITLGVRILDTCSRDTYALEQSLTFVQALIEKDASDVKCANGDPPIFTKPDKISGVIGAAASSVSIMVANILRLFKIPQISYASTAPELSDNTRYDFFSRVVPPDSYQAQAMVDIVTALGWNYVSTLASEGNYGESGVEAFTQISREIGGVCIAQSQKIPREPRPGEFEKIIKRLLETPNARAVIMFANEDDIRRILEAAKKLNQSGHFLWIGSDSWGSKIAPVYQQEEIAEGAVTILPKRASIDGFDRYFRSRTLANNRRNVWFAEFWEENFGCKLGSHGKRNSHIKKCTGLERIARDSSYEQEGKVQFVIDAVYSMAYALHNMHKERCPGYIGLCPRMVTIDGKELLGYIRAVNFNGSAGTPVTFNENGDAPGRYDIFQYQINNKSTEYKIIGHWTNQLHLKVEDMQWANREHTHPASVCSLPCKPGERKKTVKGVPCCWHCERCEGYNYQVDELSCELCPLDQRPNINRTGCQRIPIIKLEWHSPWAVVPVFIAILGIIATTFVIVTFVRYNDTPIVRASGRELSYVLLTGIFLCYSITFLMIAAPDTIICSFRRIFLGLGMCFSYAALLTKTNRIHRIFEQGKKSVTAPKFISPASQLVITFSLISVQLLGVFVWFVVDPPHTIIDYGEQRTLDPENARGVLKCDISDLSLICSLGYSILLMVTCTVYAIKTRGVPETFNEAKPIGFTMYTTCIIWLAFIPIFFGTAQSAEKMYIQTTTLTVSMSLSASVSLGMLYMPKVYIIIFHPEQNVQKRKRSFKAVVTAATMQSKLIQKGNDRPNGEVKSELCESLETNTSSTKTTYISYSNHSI
In the case of `O=S(=O)(NC1CC1)c1ccc(S(=O)(=O)N2CCCc3ccccc32)cc1`, the z-score is reported as 0.155. Compound `Cc1cc(C)cc(NC(=S)NCc2cccs2)c1` has a z-score of -0.000167. In the case of `CCOC(=O)c1sc(/N=C/c2c(O)ccc3ccccc23)cc1C`, the z-score is reported as -0.695. `Cc1nc(SCC(=O)CC(=O)OC(C)C)c(C#N)c(C)c1C` showed a z-score of -1.82. Compound `CN(C)S(=O)(=O)c1ccc(N2CCCC2)c(C(=O)NCc2ccccc2)c1` has a z-score of -0.0623. `Cc1nn(-c2ccccc2)c(NC(=O)c2cccs2)c(-c2ccccc2)c1=O` showed a z-score of 0.0624. In the case of `Cc1cc(C(F)F)n2nc(C(=O)Nc3c(F)cc(F)cc3Br)nc2n1`, the z-score is reported as 0.439. With `CNC(=O)CSCc1c(F)cccc1Cl` the z-score was 0.811. `CCN(CC)c1ccc2cc(-c3nc(-c4ccc(OC)cc4)cs3)c(=O)oc2c1` gave a z-score of -1.4. Compound `CCCCC(=O)Nc1ccc(C(=O)NCc2ccncc2)cc1` has a z-score of -0.508. `CC(=O)Nc1ccc(NC(=O)C(C)OC(=O)CNC(=O)c2sc3ccccc3c2Cl)cc1` (centres undefined) showed a z-score of -0.64. `CCCC(=O)NC(=S)Nc1c(C)cc(Br)cc1C` gave a z-score of 0.747. `COc1ccc(N/N=C(\C=N\O)C(=O)c2ccc(OC)cc2)cc1` gave a z-score of -0.414. For `Cc1ccc(N(C)C(=O)C2CCN(S(=O)(=O)c3ccc4c(c3)oc(=O)n4C)CC2)cc1`, the z-score was -0.436. `CN(C)/C(CN1CCOCC1)=C1\N=C(c2ccccc2)OC1=O` was tested, and the z-score was 0.0647. Compound `CCN(CC)c1ccc(CN2CCCCCC2)cc1` has a z-score of 0.0952. Work on `CS(=O)(=O)N(CC(=O)O)c1ccc(Oc2ccccc2)cc1` yielded a z-score of 0.56. Work on `CCOc1ncccc1C(=O)NCc1ccc(C)cc1` yielded a z-score of 0.231. With `CCOC(=O)c1c(NC(=O)CSc2ncccn2)sc2c1CCN(Cc1ccccc1)C2` the z-score was -0.724. Compound `COc1cc(-c2cccs2)cc(=O)c2c(C)oc(C)c12` has a z-score of -0.108. `O=C(N/N=C/c1cccs1)c1cnccn1` gave a z-score of 0.36. For `CCNC(=O)CSc1nc2ccccc2c(=O)n1-c1cc(OC)ccc1OC`, the z-score was -0.131. For `Cc1ccc(C(=O)COC(=O)c2cc(Cl)nc3ccccc23)cc1`, the z-score was -0.0527. With `Cc1ccc2[nH]c(CCN(C)C)c(CC#N)c2c1` the z-score was 0.158. Compound `CCOC(=O)c1c(C)[nH]c(C)c1C(=O)CSc1nnc(-c2ccc(OC(F)F)cc2)o1` has a z-score of 0.176. `CSc1ccc(/C=N/NC(=O)CN2CCN(Cc3ccc(C)cc3)CC2)cc1` was tested, and the z-score was 0.23. Work on `CC(C)Sc1cc(N2CCOCC2)nc(-c2ccc(Cl)cc2)n1` yielded a z-score of -0.00584. For `Cc1ccccc1NC(=O)OCc1cn(-c2ccc(Cl)cc2)nn1`, the z-score was -0.0933. Compound `COc1nc(-c2ccccc2)ccc1-c1noc(-c2cccnc2)n1` has a z-score of 0.132. For `O=C(c1cccc(Cl)c1)N1CCN(Cc2ccccc2F)CC1`, the z-score was -0.0221. `O=C1c2cccnc2C(=O)N1c1ccccc1-c1ccccc1` showed a z-score of -1.18. With `O=C(COC(=O)/C=C/c1cccs1)Nc1ccc2ccccc2c1` the z-score was -0.133. For `CC(C)CN(CC(C)C)CC(O)COc1ccc([N+](=O)[O-])cc1` (centres undefined), the z-score was 0.154. `CCCCc1ccc(NC(=O)N[C@H](C(=O)O)C(C)C)cc1` gave a z-score of -0.045. Compound `CC1CC1C(=O)NCCc1ccc(Cl)cc1` (centres undefined) has a z-score of 1.05. `S=C(NCCc1ccccn1)Nc1ccc(Cl)cc1` gave a z-score of 0.143. `O=C(Nc1ccccc1Cl)N1CCN(c2ccc3nncn3n2)CC1` showed a z-score of 0.0568. With `O=C(CCc1ccccc1)Nc1ccc(NC(=O)C2CC2)nc1` the z-score was -1.03. `CCC(C)(C)n1nnnc1C(c1ccccn1)N1CCN(c2cccc(OC)c2)CC1` (centres undefined) gave a z-score of -0.987. `Cc1cc(NC(=O)COc2cccc(C)c2C)no1` was tested, and the z-score was -0.147. `CCOC(=O)Cn1c(=O)oc2cc(S(=O)(=O)N3CCCC(C(=O)OCC)C3)ccc21` (centres undefined) was tested, and the z-score was 0.444. `Clc1ccc(OCc2cc(-c3ccccc3)no2)cc1Cl` gave a z-score of -0.0469. In the case of `CC(=O)c1cnc2cc(-c3ccc(Cl)cc3)nn2c1C`, the z-score is reported as -0.316. `CC(=O)C1=NOC(CNC(=O)c2c(-c3ccccc3Cl)noc2C)C1` (centres undefined) showed a z-score of 0.27. `COC(=O)c1ccc(-c2ccco2)n1Cc1cccc(C)c1` was tested, and the z-score was -0.285. `CCCn1nc(Oc2nc(SC)nc(N(C)C)n2)ccc1=O` was tested, and the z-score was 0.225. With `C=C(C)CC1Nc2ccccc2NC1CC(=C)C` (centres undefined) the z-score was -0.434. `COc1ccc(CC(=O)Nc2cc(Cl)ccc2O)cc1` was tested, and the z-score was -0.802. `Cc1ccc(CNC(=O)c2cn(C)c(=O)c3c2c2ccccc2n3C)o1` showed a z-score of -0.046. `CCn1c(SCC(=O)N/N=C/c2ccc(O)c(OC)c2)nc2ccccc21` was tested, and the z-score was 0.0609. Work on `CCCNC(=O)c1cc(S(=O)(=O)N2CCc3ccccc32)ccc1F` yielded a z-score of -0.508. Compound `c1ccc2c(CSCCc3ccncc3)cccc2c1` has a z-score of -0.109. With `COc1ccc(/C=C2/SC(=O)N(CCNC(=O)C3COc4ccccc4O3)C2=O)cc1` (centres undefined) the z-score was 0.234. `COC(=O)c1ccn(-c2nc(-c3ccco3)cc(C(F)(F)F)n2)n1` showed a z-score of -0.739. With `COc1ccc(C(=O)Nc2ccc(C)cc2C(=O)c2ccccc2)cc1` the z-score was -0.758. With `O=C(Nc1ncnc2sc3c(c12)CCCCC3)c1ccco1` the z-score was -0.457. In the case of `CC1CN(c2ccc(S(=O)(=O)N3CCOCC3)cn2)CC(C)O1` (centres undefined), the z-score is reported as 0.501. `CC1CCCN(C(=O)c2cc(F)c(F)cc2Cl)C1` (centres undefined) gave a z-score of -0.0397. `OCC1CCCN(C(=S)NCCc2ccccc2)C1` (centres undefined) showed a z-score of 0.429. Compound `COc1ccccc1OCCCOc1ccc([N+](=O)[O-])cc1Cl` has a z-score of -0.192. In the case of `COc1cnn(-c2ccc(Br)cc2)c(=O)c1SCc1ccccc1`, the z-score is reported as 0.0428. In the case of `COC(=O)c1cc(C#N)c(Oc2cccc(C)c2C)nc1C`, the z-score is reported as -0.232. With `COC(C(=O)NCc1ccccc1C)c1ccccc1` (centres undefined) the z-score was -0.267. In the case of `CC(C)N1C(=O)S/C(=C/c2ccc(Sc3nc4ccccc4[nH]3)o2)C1=O`, the z-score is reported as -0.0626. `CCOC(=O)c1nn(-c2ccccc2)c(C)c1C(C)=O` showed a z-score of -0.0737. Work on `CCOC(=O)C1=C(C)NC(=O)NC1c1ccc(Cl)cc1Cl` (centres undefined) yielded a z-score of 0.0696. Work on `CC(=O)c1cc(F)c(N2CCCCCC2)cc1C` yielded a z-score of 0.0588. `Cc1ccc(NC(=O)c2sc3nc4c(c(-c5ccco5)c3c2N)CCC4)cc1` gave a z-score of -0.382. With `COc1cc(/C=N/NC(=O)CCN2CCN(C(c3ccccc3)c3ccccc3)CC2)ccc1O` the z-score was -0.552. For `Cc1ccc(S(=O)(=O)NC(=NCC(=O)O)c2ccc(F)cc2)cc1`, the z-score was 0.317. Work on `Cc1n[nH]c(C)c1S(=O)(=O)N(CC(=O)N1CCc2ccccc21)c1ccc(C(C)C)cc1` yielded a z-score of 0.497. For `Cn1c(=O)c(Oc2cc(Cl)cc(Cl)c2)nc2ccccc21`, the z-score was 0.0246. `CCN(CCCNC(=O)CCc1nc(-c2ccc(OC)cc2)no1)c1cccc(C)c1` gave a z-score of -0.324. `CCOC(=O)c1c(C)[nH]c(C2=NNC(=Nc3ccccc3OC)SC2)c1C` gave a z-score of -0.32. Compound `CCOC(=O)c1ccc(COC(=O)CNC(=O)CNC(=O)c2ccc(OC)cc2)o1` has a z-score of 0.127. Compound `CCCC1C2C(=O)N(c3ccccc3OC)C(=O)C2ON1c1ccccc1` (centres undefined) has a z-score of -0.179. For `CS(=O)(=O)N1Cc2ccccc2CC1C(=O)OCC(=O)Nc1ccc2ccccc2c1` (centres undefined), the z-score was 0.0644. For `O=C(Nc1ccccc1F)c1ccc(-n2cncn2)nc1`, the z-score was -0.0684. `CC(C)Cc1nc(N2CCCCC2)c(C#N)c2c1CCC2` gave a z-score of 0.76. For `CCOC(=O)c1cc2c(C(F)(F)F)cc(-c3ccccc3)nc2o1`, the z-score was -0.307. In the case of `O=S(=O)(Cc1ccccc1)c1ccccc1-c1nnc(-c2ccccc2)o1`, the z-score is reported as 0.176. Compound `Cn1c(CC(=O)Nc2ccc(F)cc2)c(Sc2ccccc2)c2ccccc21` has a z-score of -0.239. Compound `Cc1noc(C)c1COc1ccc(C(=O)OCC(=O)N2CC3(C)CC2CC(C)(C)C3)cc1` (centres undefined) has a z-score of -0.932. Compound `CCOCCCNC(=O)C(NC(=O)c1ccc(=O)[nH]c1)c1ccc(C)cc1` (centres undefined) has a z-score of -0.145. Compound `O=C(c1cc2nc(-c3ccc(F)cc3)cc(C(F)(F)F)n2n1)N1CCCC1` has a z-score of -0.141. `Cc1cccc(NS(=O)(=O)c2cccs2)c1` gave a z-score of 0.182. Compound `Cc1ccccc1OCc1nc(-c2ccc(NC(=O)c3ccc4c(c3)OCO4)cc2)no1` has a z-score of -0.106. With `CCC(CC)COC(=O)C(C#N)c1nc2ccccc2nc1N1CCN(CC)CC1` (centres undefined) the z-score was 2.72. In the case of `CCc1nnc(NC(=O)CSc2nc(-c3ccccc3)c(-c3ccccc3)o2)s1`, the z-score is reported as -0.14. `Cc1ccc(S(=O)(=O)N(C)c2ccccc2C(=O)NC2CCCC2)cc1` was tested, and the z-score was 0.54. For `COCCCNCCCCOc1ccc(C)cc1[N+](=O)[O-]`, the z-score was -0.0288. Compound `CC(C)c1nnc(N2C(=O)c3oc4ccccc4c(=O)c3C2c2ccco2)s1` (centres undefined) has a z-score of -0.437. In the case of `C=CC[N+](C)(C)C/C(Cl)=C(\Cl)c1ccccc1`, the z-score is reported as 1.08. For `N#Cc1cnc(SCCc2ccccc2)nc1N`, the z-score was -0.189. In the case of `Cc1cccc(N(C(=O)Cn2nnc3ccccc32)C(C(=O)NC(C)(C)C)c2ccsc2)c1` (centres undefined), the z-score is reported as -0.144. For `Cc1cccc(C)c1NC(=O)CS(=O)CC(=O)Nc1ccc(F)cc1F` (centres undefined), the z-score was -0.034. `CCCN1C2=C(C(=O)CC(C)(C)C2)C(c2ccc(F)cc2)C2=C1c1ccccc1C2=O` (centres undefined) gave a z-score of -0.114. Work on `CN(C)c1ccc(/C=C(\C#N)C(=O)NCc2ccco2)cc1` yielded a z-score of -0.253. `CC(=O)NC1C(=O)SC1(C)C` (centres undefined) was tested, and the z-score was 1.19. Work on `Cc1ccc(NC(=S)NC(=O)c2c(-c3ccccc3Cl)noc2C)cc1` yielded a z-score of 0.74. Work on `COc1ccc(C(=O)NCc2nnc(SCC(=O)N3CCC(C)CC3)o2)cc1OC` yielded a z-score of -0.254. Compound `CC1CC1C(=O)OCC(=O)NC(=O)NCc1ccco1` (centres undefined) has a z-score of -0.131. `O=C1CC(Nc2ccccc2)C(=O)N1CCc1ccccc1` (centres undefined) showed a z-score of -0.213. `CCOC(=O)C1CCN(C(=O)C2(NC(=O)Nc3ccccc3Cl)CCCCC2)CC1` gave a z-score of -0.0239. `O=C(Nc1ccon1)c1ccccc1Cl` was tested, and the z-score was -0.0993. `COC(=O)c1cc(Br)c(=O)n(CCN2CCCC2)c1` gave a z-score of 0.122. `Cc1cc(C)c(C(=O)COC(=O)c2cc([N+](=O)[O-])ccc2NCCO)cc1C` gave a z-score of -0.401. For `CCOc1cccc(CNn2cnnc2)c1OCc1ccccc1Cl`, the z-score was -0.0444. In the case of `CCOC(=O)CNS(=O)(=O)c1ccc(C(=O)O)cc1`, the z-score is reported as 0.207. In the case of `O=Cc1ccccc1Oc1ccccc1`, the z-score is reported as -0.00941. For `O=[N+]([O-])c1cc(C(F)(F)F)cc([N+](=O)[O-])c1NCc1cccnc1`, the z-score was -0.229. `COc1cccc(OC)c1OCC(O)CN1CCN(c2ccccc2)CC1` (centres undefined) gave a z-score of 0.487. Compound `Cc1nc(NC(=O)c2ccc(F)cc2)nc2cc3c(cc12)OCO3` has a z-score of -0.174. With `O=C(CN1C(=O)c2cccc3cccc1c23)Nc1cccnc1` the z-score was -0.122.
